# Reference: PubChem BioAssay AID1159614 (National Center for Advancing Translational Sciences (NCATS), 2016)
# Screen size: about 45,000 compounds; about 65 (0.1%) were called active. The call rests on the fitted dose curve; in most records, active means well fitted activation curve with a large enough effect; inconclusive means small, poorly fitted or top-dose-only effect; inactive means no such curve, though single readings can be large or run the other way. This is one part of the list.
# Biological target: Galactocerebrosidase (Homo sapiens) (UniProt P54803)
# Assay: A Novel Cell-Based Assay to Identify Small Molecules for B -Galactocerebrosidase; further: 0% is about no effect; nearly all actives have a fitted effect of over 65% in size
# Details: 145M-Twi-hGALC-G270D cells (Twitcher mouse brain line with human GALC G270D), HMU-beta-Gal fluorescence, 48 h; series mostly up to 57.5 µM; activation: at the top concentration
# How it was run: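 Brain-derived Twitcher mouse 145M-Twi cells stably expressing human GALC-G270D or wild-type GALC, treated live, then residual GALC activity read by fluorescence of HMU-b-Gal substrate (0.1 mM final) in citrate-phosphate buffer pH 5.2 with sodium taurocholate. Signal increase indicates enhancement.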
# UniProt P54803, sequence (P54803 whole entry, looked up): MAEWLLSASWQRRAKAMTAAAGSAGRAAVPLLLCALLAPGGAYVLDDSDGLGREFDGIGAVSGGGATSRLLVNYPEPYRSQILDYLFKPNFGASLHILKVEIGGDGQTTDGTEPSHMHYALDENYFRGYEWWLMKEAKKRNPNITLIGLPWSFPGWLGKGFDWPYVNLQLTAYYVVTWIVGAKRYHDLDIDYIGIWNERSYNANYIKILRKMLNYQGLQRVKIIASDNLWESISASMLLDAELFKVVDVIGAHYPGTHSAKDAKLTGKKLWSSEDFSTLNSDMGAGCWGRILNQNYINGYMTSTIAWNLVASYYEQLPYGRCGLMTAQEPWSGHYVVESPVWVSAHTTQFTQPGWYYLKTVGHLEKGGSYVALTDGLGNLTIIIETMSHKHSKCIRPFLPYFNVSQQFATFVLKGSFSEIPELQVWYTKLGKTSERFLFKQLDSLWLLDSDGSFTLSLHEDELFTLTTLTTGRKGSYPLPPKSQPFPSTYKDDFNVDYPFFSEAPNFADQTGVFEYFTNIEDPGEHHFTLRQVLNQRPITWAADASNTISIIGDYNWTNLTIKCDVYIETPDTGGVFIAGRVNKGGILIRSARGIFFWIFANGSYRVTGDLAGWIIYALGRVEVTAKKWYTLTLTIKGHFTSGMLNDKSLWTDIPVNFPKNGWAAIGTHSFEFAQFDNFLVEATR
row,Structure (SMILES),activation
1,CCN(CCCNC(=O)CN1N=C(c2ccccc2)CCC1=O)c1cccc(C)c1,inactive: -13.7%
2,CCOc1ccc(CCNC(=O)c2ccc3nc(N4CCC(C)CC4)sc3c2)cc1OCC,inactive: -3.04%
3,COc1ccc(NC(=O)c2ccco2)cc1NC(=O)c1cccc(C)c1OC,inactive: -1.35%
4,Cc1ccccc1-n1c(SCC(=O)c2ccccc2)nnc1-c1ccc(F)cc1,inactive: -2.5%
5,Cc1ccc(SCC(=O)Nc2ccc(O)c(-c3nc4cc(C)ccc4o3)c2)cc1,inactive: -18.2%
6,Cc1ccc(NC(=O)NC(C)c2c(-n3cccc3)sc(C)c2C)c(C)c1 (stereo unspecified),inactive: 3.64%
7,COc1ccc(Cn2c(CCC(=O)Nc3cc(C)cc(C)c3)nc3cccnc32)cc1,inactive: -18.8%
8,Cc1ccc(CNC(=O)CCCCCn2c(=O)c3sccc3n(CC(=O)C(C)(C)C)c2=O)cc1,inactive: -7.9%
9,Cc1ccc2c(CN3CCN(c4ccc(Cl)cc4)CC3)cc(=O)oc2c1,inactive: -9.61%
10,O=C(Nc1ccccc1)C1CCN(S(=O)(=O)c2ccc3c(c2)CCCN3C(=O)C2CCC2)CC1,inactive: -18.4%
11,CCOc1cc(CNC(=O)CSc2n[nH]c(-c3ccccc3)n2)cc(OCC)c1OCC,inactive: 4.86%
12,Cc1ccc(NC(=O)CSc2nc(=O)n(Cc3ccncc3)c3c2CCC3)cc1Cl,inactive: -11.4%
13,COC(=O)c1cc(NC2(c3ccccc3)C(=O)c3ccccc3C2=O)cc(C(=O)OC)c1,inactive: -13.4%
14,COc1ccc(Nc2ncc(C(=O)Nc3cccc(OC)c3)c3ccccc23)cc1,inactive: -6.91%
15,Cc1ccc(Cl)cc1N(C)C(=O)c1sc2nc3n(c(=O)c2c1C)CCCC3,inactive: -11.1%
16,CCc1ccccc1NC(=O)Cn1c(=O)n(-c2ccccc2)c(=O)c2oc3ccccc3c21,inactive: 5.55%
17,CCOc1cc(C#N)c(NC(=O)c2ccc(OC)c(S(=O)(=O)N3CCCCC3)c2)cc1OCC,inactive: -2.85%
18,CC(=O)c1ccc(NC(=O)c2cnc(N3CCCC3)nc2C)cc1,inactive: -23.3%
19,COc1ccc(NC(=O)Cn2c(=O)n(Cc3ccco3)c(=O)c3sc4ccccc4c32)cc1OC,inactive: -16.8%
20,O=C(Cn1c(=O)n(Cc2ccco2)c(=O)c2ccccc21)Nc1cccc(F)c1,inactive: -10.3%
21,Cc1ccc(-n2c(-c3ccc(Br)cc3)nc3c(cnn3-c3ccccc3)c2=O)cc1,inactive: -7.18%

row,Structure (SMILES),activation
1,CCN(C(=O)CSc1nc(-c2ccc(C(C)C)cc2)no1)c1ccccc1,inactive: -6.38%
2,O=C(Nc1nnc(S(=O)(=O)N2CCCc3ccccc32)s1)c1ccc(Cl)cc1,inactive: -3.67%
3,COc1ccc2c(c1)CC(C(=O)Nc1ccc(Br)c(C)c1)CO2 (stereo unspecified),inactive: -9.2%
4,O=C(C1CCCCC1)N(Cc1cccnc1)c1nc2ccc(Cl)cc2s1,inactive: -25.2%
5,Cc1ccc(N2CCN(C(=O)c3cn(C)c4ccc(S(=O)(=O)N5CCC(C)CC5)cc4c3=O)CC2C)cc1 (stereo unspecified),inactive: -18.1%
6,COc1ccccc1N1CCN(S(=O)(=O)c2ccc(-c3coc(C)n3)cc2)CC1,inactive: 1.1%
7,Cc1c2cnn(-c3ccccc3)c(=O)c2c(C)n1CC(=O)Nc1ccccc1Br,inactive: -3.1%
8,Cc1ccccc1-c1nc(CS(=O)(=O)CC(=O)NCCCN2CCN(C)CC2)c(C)o1,inactive: 4.32%
9,Cc1c(N(C)CS(=O)(=O)O)c(=O)n(-c2ccccc2)n1C,inactive: -9.94%
10,COc1ccc(C(=O)NCC(=O)OCc2cc(=O)n3nc(C4CCCCC4)sc3n2)cc1,inactive: -1.73%
11,COc1ccc(-n2nnc(-c3nc(-c4ccc5c(c4)OCO5)no3)c2C)cc1Cl,inactive: -12.5%
12,COc1ccc(NC(=O)CSc2nncn3c2cc2occc23)c(OC)c1,inactive: -19.7%
13,CC(C)Oc1ccc(C(=O)N2CCC(c3nc4ccccc4s3)CC2)cc1,inactive: -21.7%
14,COc1cc(C(=O)Nc2ccc(-c3nc4cc(C)c(C)cc4o3)cc2)cc(OC)c1OC,inactive: -9.48%
15,Cc1ccc(SCCNC(=O)CN(c2cccc(C)c2C)S(C)(=O)=O)cc1,inactive: -11.6%
16,CCOC(=O)c1ccc(NC(=O)CCc2c(C)nc3cc(-c4ccc(OC)cc4OC)nn3c2C)cc1,inactive: -20.5%
17,CC(=O)Nc1ccc(S(=O)(=O)N2CCC(n3c(C)nc4cccnc43)CC2)cc1,inactive: -25.9%
18,CCC(C)NC(=O)Cn1c(=O)n(-c2cc(OC)cc(OC)c2)c(=O)c2ccccc21 (stereo unspecified),inactive: -13.2%
19,CCOC(=O)c1c(C)oc2nc(C)nc(NCCc3ccc(OCC)cc3)c12,inactive: -14.9%
20,COc1ccc(C(=O)Nc2ccc(-c3nc4cc(C)ccc4o3)c(O)c2)cc1,inactive: -1.08%
21,CCN1CCC(N(Cc2ccc(F)cc2)C(=O)Nc2ccc(C)c(F)c2)CC1,inactive: -26.7%

row,Structure (SMILES),activation
1,CCOc1ccc(NC(=O)Cn2cc(C(=O)C3CC3)c3ccccc32)cc1,inactive: -11.6%
2,O=C(CSc1nccn1Cc1ccco1)Nc1ccc(OC(F)(F)F)cc1,inactive: -22.3%
3,Cc1cc(=O)[nH]c2nnc(SCc3cccc(C(F)(F)F)c3)n12,inactive: -8.62%
4,CCOc1ccc(CN(CCc2ccc3c(c2)OCO3)Cc2cc(OC)cc(OC)c2)cc1,inactive: -21.9%
5,Cc1ccc2c(CNCCc3ccco3)c(C(=O)O)n(Cc3ccc(F)cc3)c2c1,inactive: -5.69%
6,COc1ccc(NC(=O)CCCc2nnc3n(C(C)C)c(=O)c4sccc4n23)cc1Cl,inactive: -4.25%
7,Cc1nn(-c2ccccc2)c(-n2cccc2)c1C(=O)NCCCN1CCN(c2ccccc2F)CC1,inactive: -6.75%
8,Cc1ccc(OCC(=O)OCc2cc(=O)n3ccsc3n2)cc1C,inactive: -12%
9,Cc1nc2ccc(S(=O)(=O)NCC(=O)NCc3ccc(Cl)cc3)cc2s1,inactive: -6.87%
10,COc1ccccc1N1CCN(c2ncc3c(n2)CCN(Cc2ccccc2C)C3)CC1,inactive: -4.62%
11,CCOc1ccc(NC(=O)Cn2c(=O)nc(-c3ccccc3)c3ccccc32)cc1,inactive: -5.99%
12,Cc1ccc(C)c(NC(=O)CSc2cn(CC(=O)N3CCCCC3)c3ccccc23)c1,inactive: -5.79%
13,COc1ccc(OC(=O)c2cc(-c3ccc4c(c3)OCCO4)on2)cc1,inactive: -7.29%
14,Cc1nc(N2CCOCC2)c2c(C(=O)N3CCN(c4cccc(C(F)(F)F)c4)CC3)c(C)oc2n1,inactive: -11.2%
15,COc1ccc(NC(=O)C(Cc2ccccc2)NS(=O)(=O)c2ccc3c(c2)oc(=O)n3C)c(OC)c1 (stereo unspecified),inactive: -10.6%
16,Cc1cccc2nc(-c3ccc(Cl)s3)c(Nc3ccc4c(c3)OCCO4)n12,inactive: -12.1%
17,CC(C)c1ccc(NC(=O)Cn2nnc(C(=O)NCCc3ccccc3)c2N)cc1,inactive: 0.569%
18,COc1cc(Cl)c(NC(=O)CN2C(=O)c3cccnc3Sc3ccccc32)c(OC)c1,inactive: -5.15%
19,Cn1nc(-c2ccc(N3CCCCC3)c(NC(=O)c3ccc(Cl)cc3)c2)c2ccccc2c1=O,inactive: -7.98%
